By % Inhibition is commonly meant the relative decrease from the control value, in per cent.

About 540 (0.36%) of roughly 150,000 compounds showed an effect of 50% or more. The list shows a part of the results.

For this assay, the system named is Plasmodium falciparum. Briefly: Primary screen in NF54 nanoGlo assay, in single point, at 2uM, 72h; a lower Z score goes with more inhibition. It counts as functional, Erythrocyte. Conditions: timepoint 72 hour.
As for `Cc1ccc(NC(=O)N2CCCCCCNC(=O)[C@@H]3CCCC[C@@H]32)cc1C`, the “% Inhibition” value is 0% and the Z score is given as 0.

As to `O=C(CCc1ccccn1)N[C@@H]1COCC[C@@H]1Oc1ccc(F)cc1`, the “% Inhibition” value was determined as 7% and the Z score was -0.78.

Consider `O=C(N[C@@H]1CN(c2ncccn2)C[C@H]1CO)c1cccc2[nH]ccc12`, for which the “% Inhibition” value is recorded as -9% and the Z score was 1.24.

With `O=C(Nc1ccc(-c2ccccc2)cn1)[C@H]1CCOC1`, the “% Inhibition” value was -4% and the Z score is 0.68.

On to `O=C(Nc1ccc(Cl)cn1)c1ccccn1`, for which the “% Inhibition” value was determined as 1% and the Z score is on record as -0.08.

Take `COCc1ncc(C)n1CC1CCN(C(=O)CCc2ccc(OC)cc2)CC1`: the “% Inhibition” value was 0% and the Z score is -0.03.

`C[C@@H](C1CC1)N(C1CC1)S(=O)(=O)c1ccc(F)cc1F`: the “% Inhibition” value was determined as 84% and the Z score is given as -10.78.

Regarding `O=C(NCCC(c1ccccc1)c1ccccc1)c1cc(-c2ccccc2Cl)nn1-c1ccc(Cl)c(Cl)c1`, the “% Inhibition” value was -1% and the Z score worked out at 0.11.

As to `COc1ccc(-c2ncc(C(=O)NC[C@H]3CCCO3)c(Oc3ccc(Cl)cc3)n2)cc1`, the “% Inhibition” value is reported as -3% and the Z score was determined as 0.47.

Take `CCOC(=O)[C@H]1CCCN(Cc2nnsc2Cl)C1`: the “% Inhibition” value was -13% and the Z score is 1.14.

Regarding `O=C(NC1CCCCCC1)c1n[nH]c2c1COc1ccccc1-2`, the “% Inhibition” value is recorded as -4% and the Z score stood at 0.71.

For `Cc1ccccc1CN1CCCN(C(=O)c2n[nH]c3ccccc23)CC1`, the “% Inhibition” value is -11% and the Z score worked out at 1.38.

In the case of `CCNC(=O)c1nnn(-c2ccc(OCC)cc2)c1-c1cccnc1`, the “% Inhibition” value is reported as -10% and the Z score came out at 0.91.

`Cc1oncc1CN1CCC[C@H]1C(F)(F)F`: the “% Inhibition” value is listed as 5% and the Z score was -0.71.

For `CCCS(=O)(=O)CC(=O)N1CCCC(C)C1CN` (stereo not given), the “% Inhibition” value worked out at 6% and the Z score is given as -0.74.

For the compound `CC1(C)CCCN1C(=O)NCCCC(F)(F)F`, the “% Inhibition” value was -15% and the Z score is on record as 1.48.

For `CCc1ncnc(O[C@H]2CCN(C(=O)NCCc3ccc(OC)cc3)C2)c1F`, the “% Inhibition” value was 0% and the Z score is -0.03.

With `CC1CN(Cc2ncc(C(C)(C)C)s2)CC[S+]([O-])C1` (stereo not given), the “% Inhibition” value is -8% and the Z score is 1.21.

`Cc1oc(-c2ccccc2NS(C)(=O)=O)nc1CN(C)Cc1ccc(N2CCCC2)cc1`: the “% Inhibition” value turned out to be 1% and the Z score was -0.14.

Take `COC(=O)NCCNC(=O)c1ncccc1NCC1CCC1`: the “% Inhibition” value is -30% and the Z score is given as 3.53.

`CC(NC(=O)N1CCC(n2cc(Cl)cn2)C1)C1CCCN(C2CCC2)C1` (stereo not given): the “% Inhibition” value is recorded as -1% and the Z score stood at 0.18.

As for `COc1ccc(-c2nc(C)nc3onc(C)c23)cn1`, the “% Inhibition” value is on record as -11% and the Z score came to 1.46.

Turning to `CC1Cc2cc(-c3ccc(CNC(=O)C(C)(O)C4CC4)cc3)ccc2O1` (stereo not given), the “% Inhibition” value is recorded as 35% and the Z score was -0.59.

With `COc1ccc(C(=O)N2CCC3(CC2)[C@@H](OC)CN3c2cccc(F)c2)c(OC)c1`, the “% Inhibition” value was -11% and the Z score was 1.45.

Regarding `CCCCN(CC(=O)N(Cc1ccco1)C[C@H]1CCCO1)C(=O)NC(C)(C)C`, the “% Inhibition” value is recorded as -8% and the Z score is reported as 1.08.

For `Cc1nc2c(c(-c3ccncc3F)n1)CCC2`, the “% Inhibition” value is listed as -15% and the Z score was 2.8.

As for `CN=C(NCc1csc(C2CC2)n1)N[C@@H](C)c1ccc(C)o1`, the “% Inhibition” value is -9% and the Z score was 0.96.

On to `CC(=O)N1CC[C@@]2(O)CCN(CC(=O)Nc3ccc(C)c(C)c3)C[C@H]2C1`, for which the “% Inhibition” value is on record as -8% and the Z score worked out at 1.03.

For the compound `COc1ccc(NCc2cc3ccccc3o2)cn1`, the “% Inhibition” value is -9% and the Z score stood at 1.01.

In the case of `COc1nc2c(cc1CNC(=O)CCn1cccn1)C(=O)N(C1CCCC1)C2`, the “% Inhibition” value is on record as -23% and the Z score was determined as 2.93.

For `Cn1nc(C2CC2)cc1N1CCN(C(=O)c2noc3c2CCCC3)CC1`, the “% Inhibition” value was found to be 4% and the Z score was -0.55.

On to `Cn1cc(C(=O)N2CCc3c(C#N)cccc32)c(C2CC2)n1`, for which the “% Inhibition” value is given as -4% and the Z score is 0.69.

As for `OC1(C(F)(F)F)CCN(Cc2cnc3cnccn23)CC1`, the “% Inhibition” value is on record as -2% and the Z score is 0.41.

Regarding `CCOc1cccc(CNC(=O)C2CC=CC2)c1`, the “% Inhibition” value was -3% and the Z score is on record as 0.5.

`Cc1cc(C)c(CNCCS(=O)(=O)N2CCCC2)c(C)c1CO`: the “% Inhibition” value is on record as -15% and the Z score was found to be 2.19.

Consider `COCCCNC(=O)[C@@H]1CCCCc2nn(Cc3cccc(F)c3)c(=O)n21`, for which the “% Inhibition” value is listed as -15% and the Z score was 1.43.

Turning to `Cc1csc([C@H](C)N(C)c2nc3c(s2)c(C)nn3C)n1`, the “% Inhibition” value is on record as -18% and the Z score turned out to be 1.66.

As for `Cc1cc(NC(=O)c2cc(C(C)C)[nH]n2)n(C)n1`, the “% Inhibition” value was found to be 15% and the Z score is reported as -2.27.

In the case of `C[C@H]1CN(CCNC(=O)Nc2ccns2)CCO1`, the “% Inhibition” value was -4% and the Z score turned out to be 0.76.

Turning to `O=c1cc(N2CCNCC2)cnn1Cc1csc(-c2ccccc2)n1`, the “% Inhibition” value turned out to be 5% and the Z score is reported as -0.62.

As to `COc1cccc(Cn2nccc2NC(=O)c2scnc2C)c1OC`, the “% Inhibition” value is given as -4% and the Z score amounted to 0.6.

In the case of `O=C1CN(c2ccc(NC(=O)c3cccs3)cn2)CCN1`, the “% Inhibition” value is 2% and the Z score was -0.27.

For the compound `CCCc1cc([C@@H]2CCCN2Cc2ccc(OCC)c(OC)c2)no1`, the “% Inhibition” value is -9% and the Z score amounted to 1.19.

For the compound `O=C(NC[C@H]1CC2c3ccccc3C1c1ccccc12)N(CCO)C1CC1`, the “% Inhibition” value stood at 1% and the Z score is listed as -0.12.

For `COc1ccc(-c2cnc3ncnn3c2N2CCCN(C(=O)Nc3cc(OC)c(OC)c(OC)c3)CC2)cc1`, the “% Inhibition” value is 21% and the Z score is -2.04.

On to `O=C(NC(C1CCC1)C1CCC1)[C@H]1CCS(=O)(=O)C1`, for which the “% Inhibition” value is reported as -2% and the Z score is listed as 0.22.

On to `O=C(c1cccs1)N1CCc2sc(Cl)cc2C1`, for which the “% Inhibition” value is reported as -12% and the Z score was 1.35.

In the case of `CCCN(Cc1c(-c2ccccc2)nn(C)c1Oc1ccc(Cl)cc1)C(=O)c1ccco1`, the “% Inhibition” value is -20% and the Z score is listed as 1.77.

With `Cc1cc(C(=O)N2CCC[C@H](c3nc(C4CCOCC4)no3)C2)nn1C`, the “% Inhibition” value is on record as -12% and the Z score is 1.74.

`Cc1cc(NC(=O)NCC(C)(C)[C@@H](O)C(C)C)nn1C`: the “% Inhibition” value is -5% and the Z score came out at 0.71.

For the compound `CS(=O)(=O)CCN(C(=O)c1csc([C@@H]2CCCO2)n1)C1CC1`, the “% Inhibition” value is on record as -6% and the Z score is reported as 0.77.

Consider `Cc1noc(C)c1C(=O)N[C@H](c1ccccc1)C1CC1`, for which the “% Inhibition” value is recorded as -5% and the Z score is listed as 0.89.

Regarding `COc1cncc(C(NS(=O)(=O)N2CCCCCC2)[C@H]2C[C@H](O)C2)c1` (stereo not given in full), the “% Inhibition” value is given as -7% and the Z score turned out to be 1.08.

`Cn1cc(-c2nccnc2CNC(=O)c2ccncc2F)cn1`: the “% Inhibition” value is listed as -13% and the Z score is reported as 1.5.

Turning to `CCNc1ccc(Cl)cc1C(=O)OCCOCC`, the “% Inhibition” value is on record as -10% and the Z score stood at 1.01.

The values above are taken from ChEMBL document CHEMBL4888484, “Replenishing the malaria drug discovery pipeline: Screening and hit evaluation of the MMV Hit Generation Library 1 (HGL1) against asexual blood stage Plasmodium falciparum ,using a nano luciferase reporter read-out” (2022).
